Reference: FireProtDB (doi:10.1002/pro.5560041010)

Settings: Gallus gallus; pH 5; 25 °C; GdnHCl; CD; Sodium acetate 0.1 M; reversible: yes

Question: For “Lysozyme C wild type (chain not printed)”, which denaturant m value is on record?
Answer: 2.4 kcal/mol/M

Question: What about the “denaturant midpoint (higher = more stable)” value of the same substance?
Answer: 4.12 M

Question: What about the unfolding free energy of the same substance?
Answer: 10.2 kcal/mol
